# Test results from PubChem BioAssay AID624296 (National Center for Advancing Translational Sciences (NCATS), 2012).
# The whole screen tested about 350,000 compounds, of which about 9,900 (2.8%) were called active. This list was built around the results that the source calls inconclusive (neither active nor inactive); the mix of calls is not that of the screen. Calls come from the whole dose curve; as a rule, active = well fitted activation curve with a large enough effect; inconclusive = small, poorly fitted or top-dose-only effect; inactive = no such curve, though single readings can be large or run the other way. Potencies of inconclusive entries are left out as doubtful fits.
# Assay: A quantitative high throughput screen for small molecules that induce DNA re-replication in MCF 10a normal breast cells. Note: nearly all actives have a fitted effect of over 50% in size.
# Settings: MCF 10A DNA re-replication, Hoechst nuclear intensity, 48 h; series mostly up to 46.1 µM
# Potency is the fitted concentration of half-maximal effect; tags give direction and shape of the fitted curve.
row,Compound,Potency
1,CCOc1ccccc1NC(=O)CN1C(=O)COc2ccc(S(=O)(=O)N3CCOCC3)cc21,"inconclusive [activator, single point]"
2,Cc1ccc2[nH]c(C(=O)N/N=C/c3ccccc3C(=O)O)c(-c3ccccc3)c2c1,"inconclusive [activator, single point]"
3,Cc1ccc(O)c(Nc2nc(-c3ccccc3)nc3ccccc23)c1,"inconclusive [activator, single point]"
4,O=C(Cn1cc([N+](=O)[O-])nc1[N+](=O)[O-])N1CCN(c2ccccc2)CC1,inactive
5,O=C(Nc1nnc(C2CC2)o1)c1ccc(S(=O)(=O)N2CCCc3ccccc32)cc1,inactive
6,CCOC(=O)C1=NN(C(=O)Cc2ccccc2)C(O)(C(C)(C)C)C1 (centres undefined),inactive
7,COc1ccc(C2c3c(-c4ccccc4O)n[nH]c3C(=O)N2CCc2ccc(OC)c(OC)c2)cc1 (centres undefined),"inconclusive [activator, partial curve, poor fit]"
8,COc1ccc(-c2ccc(CCC(=O)O)n2CC(C)C)cc1,"inconclusive [activator, single point]"
9,O=C1C2C3C=CC([C@@H]2C(=O)N1c1nccs1)C31CC1 (some centres undefined),inactive
10,O=C(COc1cccc2cccnc12)N1CCc2ccccc2C1,"inconclusive [activator, partial curve, poor fit]"
11,O=C(NC(NC(=S)Nc1ccccc1)C(Cl)(Cl)Cl)c1cccc(Cl)c1 (centres undefined),"inconclusive [activator, single point]"
12,CCCCCOc1ccc(Br)cc1/C(C)=N/NC1=NCCN1,active: 3.26 µM
13,CNC(=O)c1[nH]cnc1C(=O)N[C@@H](C)C(=O)OC(C)(C)C,"inconclusive [activator, single point]"
14,CC(=O)OCC1OC(n2ccc3ccccc32)C(OC(C)=O)C(OC(C)=O)C1OC(C)=O (centres undefined),"inconclusive [activator, single point]"
15,CCOC(=O)CN1C(=O)C(Sc2n[nH]c(-c3ccccc3)n2)CCc2ccccc21 (centres undefined),inactive
16,COc1ccc(CC(=O)NCC2CCCN(Cc3cccc(C(F)(F)F)c3)C2)cc1 (centres undefined),"inconclusive [activator, partial curve, poor fit]"
17,O=S(=O)(NCC(c1ccco1)N1CCN(c2ccccc2F)CC1)c1ccccc1 (centres undefined),inactive
18,NC(=O)c1sc2nc3c(c(-c4ccccc4)c2c1N)CCC3,"inconclusive [activator, partial curve, poor fit]"
19,O=C(NCc1ccc(Cl)c(Cl)c1)c1ccc2c(c1)OCO2,"inconclusive [activator, partial curve, poor fit]"
